In all, about 4,100 sequences were measured (“relative CpG methylation activity (normalised to average over all NNNCGNNN flanks)”: median about 0.87, highest 2% from about 2.4 on). This is one part of the list.
What follows are sequences tested against DNMT3A catalytic domain (mouse) (UniProt O88508) (assay: relative CpG methylation activity (normalised to average over all NNNCGNNN flanks) (relative (1 = mean)); higher = more methylation of the central CpG). Conditions: system: in vitro, murine catalytic domain; CpG state: hemimethylated substrate pool; residues: 608-908.
How it was run: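 For Illumina sequencing, DNA was processed by proteinase K, BsaI-HFv2 digestion, hairpin ligation, bisulfite conversion and two-step PCR after methylation by murine DNMT3A or DNMT3B catalytic domain. The methylation reaction contained 0.8 mM S-adenosyl-L-methionine in HEPES pH 7.5 buffer and ran at 37 °C for 60 min on pooled dsDNA substrates with a central CpG inside 10 random flanking nucleotides. Relative methylation activity was computed as the average methylation of each flanking context divided by the mean over all contexts. Contexts covered three flanking bases per side, and there were two independent repeats per experiment.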

Sequence	relative CpG methylation activity
GCACGAGC	1.61
GCGCGCTG	1.34
GTTCGTAC	0.882
CGGCGAGT	0.533
AAGCGGTC	0.791
CTTCGCTC	2.46
TGGCGTAT	0.389
ATACGCGG	0.901
CTGCGTGG	0.317
CTCCGCAC	1.88
ACGCGCCC	2.26
CTTCGACT	1.34
ACACGAGT	1.46
TCACGCAC	1.62
GCCCGCTG	1.4
TCCCGCTG	1.13
CTGCGGGT	1.03
TGACGCCG	1.39
TCGCGCTG	1.41
TTCCGGCG	1.94
ATGCGAAT	1.04
ACCCGGAA	0.69
TGCCGACA	0.909
AGCCGCAA	0.468
TCACGAGA	1.04

Sequence	relative CpG methylation activity
AGTCGGCC	0.721
ATCCGATT	1.64
AAACGAGT	0.644
TGGCGCCA	0.851
TGACGGAA	0.775
CGGCGAGC	0.729
TACCGCCT	1.77
TCACGGGT	0.882
TACCGAGG	0.287
TGCCGCTA	0.809
AACCGCCC	1.78
GACCGTTG	0.488
ACCCGCCG	1.76
GTCCGGTG	1.27
CCGCGTAC	0.881
AATCGAGC	0.655
TAGCGCTA	0.387
AAGCGGCT	0.462
CTACGCGT	1.87
GGACGAAT	0.517
TGGCGGAT	0.224
CGTCGACC	0.798
CACCGCAG	0.481
GAGCGCCA	0.912
GCTCGGAC	1.46

Sequence	relative CpG methylation activity
CCTCGCGT	1.36
ATGCGTTT	1.19
ATTCGATA	0.925
TCGCGTGC	0.297
CAGCGGGA	0.539
ATACGGAC	1.87
AGGCGGAT	0.435
GCCCGAGG	0.787
ATTCGCTT	1.77
AATCGGAG	0.0338
CCACGCCA	1.91
ACGCGGAC	1.08
ACCCGATA	1.07
CGGCGCGA	0.179
CGACGCGA	0.524
CATCGTGT	0.357
AGCCGTCC	1.53
TCTCGCAA	1.4
TGCCGAGT	0.638
TAACGCTG	0.798
CAACGAAT	0.648
CTGCGGAG	0.872
GCGCGGAA	0.56
TACCGAAG	0.425
TTGCGCTC	2.26

Sequence	relative CpG methylation activity
AGGCGGGA	0.347
ATGCGGCT	1.27
AAGCGATT	0.592
TACCGCGC	0.548
CTTCGGGA	0.733
CCGCGTGA	0.541
AGCCGACG	0.811
GTCCGATT	1.67
ACGCGGCT	0.894
TATCGTCA	1.29
TTGCGCGT	1.26
GCTCGGTT	0.942
TGCCGTCT	1.28
ACCCGACA	1.55
ATACGGGA	1.52
AGACGATG	0.457
ATCCGACA	1.72
AACCGTCC	1.68
TAGCGCAA	0.378
GTGCGCTC	2.03
CGCCGCGG	0.187
CCTCGGGG	0.25
CTACGGAT	1.52
AATCGAAT	0.174
TGGCGGTG	0.106

Sequence	relative CpG methylation activity
TTTCGTAA	1.87
TGACGCAC	0.88
GCTCGATG	0.561
ACGCGGTC	0.775
GCGCGGTG	0.634
CGCCGTTT	0.424
CAGCGTGC	0.327
CTTCGGTT	0.352
ATCCGTTC	1.56
GCACGCTT	2.12
TGCCGCGC	0.766
AATCGATA	0.42
GCGCGTAT	0.508
AGACGCCC	1.43
TAACGTGA	0.233
AACCGTAG	0.515
TCGCGACG	0.6
GACCGCAT	0.94
GTCCGGCG	1.49
AAACGTGT	0.156
ATTCGAGT	0.6
CTGCGATA	1.15
TCCCGAGT	0.977
CCGCGCTT	1.93
GTTCGCTT	1.58

Sequence	relative CpG methylation activity
CCTCGACT	0.872
CTCCGAAC	2.33
CGTCGACA	0.422
CCCCGTTG	0.874
GAGCGAGC	1.32
ATACGATG	1.3
TGCCGGCG	0.402
GATCGCTG	0.672
GACCGCCG	1.18
CGGCGGTT	0.238
TACCGAGC	1.23
CAACGTTC	0.87
GTGCGCGC	1.74
TGGCGGTA	0.312
TCCCGAAC	1.53
TAGCGAAC	0.705
ATCCGGTT	1.34
TGGCGTGG	0.185
CGCCGCAT	0.658
TTCCGCAG	0.954
AGGCGACG	0.412
TGACGGTT	0.398
GTGCGCTT	2.47
TTGCGACG	1.23
GTGCGGAG	0.7

Sequence	relative CpG methylation activity
GATCGTGG	0.0746
CACCGGAA	0.755
CACCGATG	0.558
CTTCGGGC	1.16
TGGCGCTG	0.656
AATCGCCG	0.966
CACCGTCC	1.64
GACCGGTG	0.677
AAGCGACA	0.602
TTACGAAT	1.54
GCACGATA	1.23
TGTCGAGT	0.575
TGGCGGAG	0.208
CATCGGAC	0.718
CGTCGCCG	1.14
CCGCGCGT	0.827
AACCGCTG	1.01
CTACGAAT	1.41
TAGCGGGT	0.231
GCGCGATG	0.728
GTCCGATG	1.11
CTACGTTT	1.6
TTCCGGGA	1.43
ATTCGGCC	1.19
TGCCGGAT	0.476

Sequence	relative CpG methylation activity
CGCCGCGT	0.547
GGTCGACA	0.357
CCACGCTT	2.06
GTACGCTG	1.88
ACGCGAGT	0.94
AGGCGTGT	0.119
ACTCGTCT	1.48
TGACGATC	0.957
TACCGCCC	1.65
GCCCGCGG	0.291
TGACGGAG	0.197
TTACGAGC	2.12
CGGCGGAT	0.495
GACCGCTC	1.78
TACCGTAT	0.614
GTTCGGAC	1.19
TTCCGTAA	1.96
GCGCGATA	0.71
TACCGGTC	0.846
AGACGTTA	0.635
CGCCGCTC	1.64
CGACGTGG	0.204
ACCCGCAC	1.35
TTTCGCCG	1.83
GCCCGATA	1.08

Sequence	relative CpG methylation activity
CGCCGCCC	1.77
ACGCGCTA	1.54
TCGCGGGT	0.714
GGACGCCC	1.88
CCACGGCG	1.2
GCTCGTTT	0.464
TACCGACA	1.09
TTACGCTT	2.62
TACCGCGA	0.569
AGGCGTTG	0.253
GTACGAGC	2.12
CGTCGACG	0.437
TATCGCTT	1.94
TTGCGGAG	0.673
GAGCGCTG	0.969
TTGCGCCT	2.1
TACCGCTA	1.14
GACCGGCG	0.818
CCTCGGCC	1.29
TTCCGACC	1.93
TTGCGAGA	1.5
ATGCGGAT	1.38
ATACGTCC	2.56
TAGCGGTT	0.141
TGGCGGGC	0.283

Sequence	relative CpG methylation activity
GCCCGCAG	0.699
GTGCGATC	2.28
GGCCGGAT	0.229
ATGCGTCG	1.68
TGTCGAAT	0.469
GGTCGACC	0.281
TGCCGCGA	0.629
TAGCGGTG	0.125
TGGCGGGG	0.455
GCTCGATC	1.32
GTTCGGCC	1.04
TAGCGTGA	0.153
GACCGCCT	1.65
GTCCGCGG	0.584
ACGCGGGA	0.593
GATCGTTG	0.265
GTTCGGTA	0.562
AGTCGCTC	1.4
AAGCGTCG	0.966
GACCGAGA	0.799
TCGCGCAC	1.29
CCCCGTGG	0.357
CGACGCCG	1.12
TCACGGGC	1.6
CTACGGGC	1.67

Sequence	relative CpG methylation activity
GTGCGGTT	0.635
GTACGCTA	1.98
AGCCGCTT	1.5
CTGCGAAG	0.897
AGCCGAGA	0.788
GAACGGAG	0.444
AGTCGCCT	1.08
CTTCGGGT	0.82
GGCCGATA	0.552
TGCCGCTC	1.84
ATCCGCGT	1.34
TTGCGTCA	1.97
CCACGAGG	0.518
AAACGGCG	0.479
TTACGACT	2.1
GTTCGGTT	0.726
GAGCGTGC	0.417
CACCGAAT	0.813
AGACGCAA	0.717
GTCCGGGC	1.59
CTCCGAGC	2.24
CATCGGGA	0.259
GTCCGACA	2.02
GGGCGTTA	0.441
CAGCGAAC	0.67

Sequence	relative CpG methylation activity
GTCCGTGC	0.722
TTGCGCAC	2.11
TGGCGCAG	0.34
CGCCGCCT	1.48
CATCGCCG	1.36
GTGCGTCT	1.71
TCGCGGAA	0.551
TTCCGAAC	2.22
TTGCGCTA	1.89
ATCCGGCG	1.45
ATACGGAT	1.53
CGACGCGC	0.694
AACCGGGG	0.513
TGACGTGA	0.475
GGGCGTGC	0.51
TGACGGAC	0.828
TATCGATC	0.934
TCTCGAGG	0.357
ACGCGTCG	1.45
AAACGACA	0.765
GCTCGGTA	0.795
TACCGCTT	1.23
GGCCGTCG	0.932
TGTCGGTA	0.389
CCTCGATA	0.911

Sequence	relative CpG methylation activity
AACCGTTT	0.905
CTTCGAAT	0.595
GCTCGTTC	1.14
CCCCGATT	0.939
CAGCGTCT	0.766
TTGCGGAC	1.29
GCTCGCTC	1.7
CGCCGCGA	0.565
AACCGACT	0.927
GAACGTGC	0.464
GGTCGAGC	0.685
CGACGTAC	0.566
GTGCGAGT	1.39
AACCGGTA	0.714
TCTCGGAG	0.328
CATCGGCC	1.1
GGGCGGAA	0.779
CTGCGCCC	2.19
GCACGTGG	0.388
ATTCGTTT	1.14
ACTCGGCC	1.4
CCACGAAA	1.39
ACGCGTTC	1.19
GAGCGATG	0.318
AAGCGATA	0.458

Sequence	relative CpG methylation activity
ATACGCAC	2.34
TAGCGCCT	1.02
CCACGACC	1.68
TGGCGAAT	0.403
AAGCGCCA	1.04
CTTCGATT	1.04
TTACGTGG	0.437
ACGCGCGT	1.07
ACTCGCAG	0.671
AGGCGATG	0.342
CCACGGTT	1.05
GCTCGGCA	1.1
AATCGTTT	0.27
ATCCGGAC	1.36
TGTCGGGT	0.615
TTCCGCAC	2.18
GATCGAAA	0.43
CTCCGCTA	2.27
GTACGAAT	1.36
